Experimental data as given in the supplement of paper PMC8728848.
This is one part of the list.

Legend:
Assay in all cases: glycan array binding signal (z-score within array); higher = stronger binding
Settings in all cases: glycan notation: IUPAC condensed, linker removed
[1] = target: Gal(b1-4)GlcNAc(b1-2)Man(a1-6)Man(b1-4)GlcNAc(b1-4)GlcNAc
How it was run: (§1)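 Glycan array data were curated from 3228 arrays in the Consortium for Functional Glycomics database and kept only where the protein sequence was available. Glycan names were converted to IUPAC-condensed notation, and columns mapping to the same glycan were averaged. The binding signal is a within-array Z-score, averaged across arrays of the same protein sequence at different concentrations or buffers and across linkers. Negative Z-scores can be read as non-binding.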

[2] = target: Gal(b1-4)GlcNAc(b1-2)Man(a1-6)[GlcNAc(b1-2)Man(a1-3)]Man(b1-4)GlcNAc(b1-4)GlcNAc
How it was run: as §1

[3] = target: Gal(b1-4)GlcNAc(b1-2)Man(a1-6)[Man(a1-3)]Man(b1-4)GlcNAc(b1-4)GlcNAc
How it was run: as §1

[4] = target: Gal(b1-4)GlcNAc(b1-2)[Gal(b1-4)GlcNAc(b1-4)]Man(a1-3)[Gal(b1-4)GlcNAc(b1-2)Man(a1-6)]Man(b1-4)GlcNAc(b1-4)GlcNAc
How it was run: as §1

[5] = target: Gal(b1-4)GlcNAc(b1-2)[Gal(b1-4)GlcNAc(b1-4)]Man(a1-3)[Gal(b1-4)GlcNAc(b1-2)[Gal(b1-4)GlcNAc(b1-6)]Man(a1-6)]Man(b1-4)GlcNAc(b1-4)GlcNAc
How it was run: as §1

[6] = target: Gal(b1-4)GlcNAc(b1-2)[Gal(b1-4)GlcNAc(b1-4)]Man(a1-3)[GlcNAc(b1-4)][Gal(b1-4)GlcNAc(b1-2)Man(a1-6)]Man(b1-4)GlcNAc(b1-4)GlcNAc
How it was run: as §1

[7] = target: Gal(b1-4)GlcNAc(b1-2)[Gal(b1-4)GlcNAc(b1-4)]Man(a1-3)[GlcNAc(b1-4)][Gal(b1-4)GlcNAc(b1-2)[Gal(b1-4)GlcNAc(b1-6)]Man(a1-6)]Man(b1-4)GlcNAc(b1-4)GlcNAc
How it was run: as §1

[8] = target: Gal(b1-4)GlcNAc(b1-2)[Gal(b1-4)GlcNAc(b1-6)]Man(a1-6)[Gal(b1-4)GlcNAc(b1-2)Man(a1-3)]Man(b1-4)GlcNAc(b1-4)GlcNAc
How it was run: as §1

[9] = target: Gal(b1-4)GlcNAc(b1-2)[Gal(b1-4)GlcNAc(b1-6)]Man(a1-6)[Gal(b1-4)GlcNAc(b1-2)Man(a1-3)]Man(b1-4)GlcNAc(b1-4)[Fuc(a1-6)]GlcNAc
How it was run: as §1

[10] = target: Gal(b1-4)GlcNAc(b1-2)[Gal(b1-4)GlcNAc(b1-6)]Man(a1-6)[GlcNAc(b1-4)][Gal(b1-4)GlcNAc(b1-2)Man(a1-3)]Man(b1-4)GlcNAc(b1-4)GlcNAc
How it was run: as §1

[11] = target: Gal(b1-4)GlcNAc(b1-2)[Gal(b1-4)GlcNAc(b1-6)]Man(a1-6)[GlcNAc(b1-4)][Gal(b1-4)GlcNAc(b1-2)[Gal(b1-4)GlcNAc(b1-4)]Man(a1-3)]Man(b1-4)GlcNAc(b1-4)[Fuc(a1-6)]GlcNAc
How it was run: as §1

[12] = target: Gal(b1-4)GlcNAc(b1-3)Gal(b1-3)GalNAc
How it was run: as §1

[13] = target: Gal(b1-4)GlcNAc(b1-3)Gal(b1-3)GlcNAc
How it was run: as §1

[14] = target: Gal(b1-4)GlcNAc(b1-3)Gal(b1-4)Glc
How it was run: as §1

[15] = target: Gal(b1-4)GlcNAc(b1-3)Gal(b1-4)GlcNAc
How it was run: as §1

[16] = target: Gal(b1-4)GlcNAc(b1-3)Gal(b1-4)GlcNAc(b1-2)Man(a1-3)[Gal(b1-4)GlcNAc(b1-3)Gal(b1-4)GlcNAc(b1-2)Man(a1-6)]Man(b1-4)GlcNAc(b1-4)GlcNAc
How it was run: as §1

[17] = target: Gal(b1-4)GlcNAc(b1-3)Gal(b1-4)GlcNAc(b1-2)Man(a1-3)[Gal(b1-4)GlcNAc(b1-3)Gal(b1-4)GlcNAc(b1-2)Man(a1-6)]Man(b1-4)GlcNAc(b1-4)[Fuc(a1-6)]GlcNAc
How it was run: as §1

[18] = target: Gal(b1-4)GlcNAc(b1-3)Gal(b1-4)GlcNAc(b1-2)[Gal(b1-4)GlcNAc(b1-3)Gal(b1-4)GlcNAc(b1-6)]Man(a1-6)[Gal(b1-4)GlcNAc(b1-3)Gal(b1-4)GlcNAc(b1-2)Man(a1-3)]Man(b1-4)GlcNAc(b1-4)GlcNAc
How it was run: as §1

[19] = target: Gal(b1-4)GlcNAc(b1-3)Gal(b1-4)GlcNAc(b1-2)[Gal(b1-4)GlcNAc(b1-3)Gal(b1-4)GlcNAc(b1-6)]Man(a1-6)[Gal(b1-4)GlcNAc(b1-3)Gal(b1-4)GlcNAc(b1-2)Man(a1-3)]Man(b1-4)GlcNAc(b1-4)[Fuc(a1-6)]GlcNAc
How it was run: as §1

[20] = target: Gal(b1-4)GlcNAc(b1-3)Gal(b1-4)GlcNAc(b1-3)Gal(b1-4)GlcNAc
How it was run: as §1

[21] = target: Gal(b1-4)GlcNAc(b1-3)Gal(b1-4)GlcNAc(b1-3)Gal(b1-4)GlcNAc(b1-2)Man(a1-3)[Gal(b1-4)GlcNAc(b1-3)Gal(b1-4)GlcNAc(b1-3)Gal(b1-4)GlcNAc(b1-2)Man(a1-6)]Man(b1-4)GlcNAc(b1-4)GlcNAc
How it was run: as §1

[22] = target: Gal(b1-4)GlcNAc(b1-3)Gal(b1-4)GlcNAc(b1-3)Gal(b1-4)GlcNAc(b1-2)Man(a1-3)[Gal(b1-4)GlcNAc(b1-3)Gal(b1-4)GlcNAc(b1-3)Gal(b1-4)GlcNAc(b1-2)Man(a1-6)]Man(b1-4)GlcNAc(b1-4)[Fuc(a1-6)]GlcNAc
How it was run: as §1

B1: HPA (Helix pomatia), Q575S3 (protein)
chain: MWAHLTGLLLICALSLSAAQRAQTGEIDCGSDSSWPKDPSDNPNRDNTREIVKHVTFSPQFCREPKVILSVTTLDAEHTKNLRYEARLKSVSPSGLSASCYSWHDGTIYRMKLSWLAVED
glycan array binding signal (z-score) [1]: -0.267 | glycan array binding signal (z-score) [2]: -0.239 | glycan array binding signal (z-score) [3]: -0.248 | glycan array binding signal (z-score) [4]: -0.27 | glycan array binding signal (z-score) [5]: -0.243 | glycan array binding signal (z-score) [6]: -0.233 | glycan array binding signal (z-score) [7]: -0.247 | glycan array binding signal (z-score) [8]: -0.243 | glycan array binding signal (z-score) [9]: -0.246 | glycan array binding signal (z-score) [10]: -0.245 | glycan array binding signal (z-score) [11]: -0.252 | glycan array binding signal (z-score) [12]: -0.265 | glycan array binding signal (z-score) [13]: -0.264 | glycan array binding signal (z-score) [14]: -0.266 | glycan array binding signal (z-score) [15]: -0.262 | glycan array binding signal (z-score) [16]: -0.125 | glycan array binding signal (z-score) [17]: -0.246 | glycan array binding signal (z-score) [18]: -0.214 | glycan array binding signal (z-score) [19]: -0.225 | glycan array binding signal (z-score) [20]: -0.263 | glycan array binding signal (z-score) [21]: -0.152 | glycan array binding signal (z-score) [22]: -0.245
